The values below come from PubChem BioAssay AID2101 (National Center for Advancing Translational Sciences (NCATS), 2009).

Screen size: about 330,000 compounds; about 300 (0.091%) were called active. Another 4% or so got no clear call; they are omitted. The call rests on the fitted dose curve; in most records, active means well fitted inhibition curve with a large enough effect; inconclusive means small, poorly fitted or top-dose-only effect, or effect the other way, or another doubt; inactive means no such curve, though single readings can be large or run the other way. Only a part is listed here, and it is no random draw.
Potency means the concentration at half of the fitted maximal effect.

The experiment has as its target Lysosomal acid glucosylceramidase (Homo sapiens) (UniProt P04062). Kind of experiment: qHTS Assay for Inhibitors and Activators of N370S glucocerebrosidase as a Potential Chaperone Treatment of Gaucher Disease.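 On activity change, negative = inhibition: 0% = full enzyme activity and -100% = no enzyme basal.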 Particulars: N370S GC spleen homogenate, 4MU-glucoside fluorescence; series mostly up to 59.4 µM; activity change, negative = inhibition: at the top concentration.
Regarding `COc1cc(NS(C)(=O)=O)ccc1Nc1c2ccccc2nc2ccccc12`, the “activity change, negative = inhibition” value is inactive: 0.196%.

On to `C[C@@H]([C@H](O)c1ccc(O)cc1)N1CCC(Cc2ccccc2)CC1`, for which the Potency result was “inactive”. Take `COC(=O)[C@H](C)[C@H]1C[C@]1(C)[C@H](NC(=O)OCc1ccccc1)c1ccccc1`: the Potency entry was “inactive”. `Oc1ccc(C[C@@H]2CNCCN2CCC23CC4CC(CC(C4)C2)C3)cc1`: the “activity change, negative = inhibition” value was inactive: -26.3%.

On to `Clc1ccccc1-c1nccc(NCc2ccccc2)n1`, for which the Potency was active: 3.55 µM. On to `COc1ccc(NC(=O)c2ccc(-c3ccc(-c4noc(C)n4)cc3C)cc2)cc1OCCN(C)C`, for which the Potency result was “inactive”. Regarding `Cc1ccc(NC(=O)OCCN2CCN(Cc3ccccc3)CCC2=O)cc1`, the “activity change, negative = inhibition” value was inactive: -9.87% [at 89.1 µM]. Consider `COc1cc2cc3c4cc(OC)c(OC)cc4cc[n+]3c(C)c2cc1OC`, for which the “activity change, negative = inhibition” value was inactive: 20.4% [at 21.6 µM].

In the case of `CC(COc1ccc(/C=C/c2ccccc2)cc1)[N+](C)(C)C` (centres undefined), the “activity change, negative = inhibition” value was inactive: -18.3%. In the case of `O=C(N[C@@H](Cc1ccccc1)C(=O)CCl)OCc1ccccc1`, the “activity change, negative = inhibition” value is inactive: -10.5%. Turning to `CCCCC[C@H](O)/C=C/[C@@H]1[C@@H](C/C=C\CCCC(=O)O)[C@@H](O)C[C@H]1O`, the “activity change, negative = inhibition” value is inactive: 1.63%. For `CCc1ccc(/C=C2/SC(=S)N(CCC(=O)NCCCN3CCOCC3)C2=O)cc1`, the “activity change, negative = inhibition” value was inactive: -14.9%.

For `CC(=O)c1ccc(S(=O)(=O)NC(=O)NC2CCCCC2)cc1`, the Potency result was “inactive”. On to `COc1ccc(Nc2nc(-c3ccccc3)nc3ccccc23)cc1S(=O)(=O)N1CCOCC1`, for which the Potency is active: 14.1 µM.

For `O=c1cc(-c2ccc(O)cc2)oc2cc(O)cc(O)c12`, the Potency result is “inactive”.

In the case of `C#CCOCCOCCOCCNc1nc(N2CCN(C(=O)CCCCCCCCCCNC(=O)[C@H](CCCCN)n3cc(C)nn3)CC2)nc(N2CCN(C(=O)CCCCCCCCCCNC(=O)[C@@H]([C@H](C)CC)n3cc(CCCCCN)nn3)CC2)n1`, the Potency was active: 17.8 µM. The same measure, in the same setting: the entry for `CCCCC[C@H](O)/C=C/[C@@H]1[C@H](C/C=C\CCCC(=O)O)[C@@H](O)C[C@H]1O` is “inactive”. For `Cc1ccc(OC[C@H](O)[C@H](C)NC(C)C)c2c1CCC2`, the “activity change, negative = inhibition” value is inactive: -2.58%. As to `CCCCC[C@H](O)/C=C/[C@@H]1[C@@H](C/C=C\CCCC(=O)O)[C@@H](O)C[C@@H]1O`, the Potency result is “inactive”. For the molecule `Cc1ccn2c(NCc3ccccc3)c(-c3cccs3)nc2c1`, the Potency is active: 11.2 µM.

Regarding `CCO[C@@H]1OC(C(=O)N2CCCCCCC2)=C[C@H](c2csc3ccccc23)[C@H]1CCCO`, the “activity change, negative = inhibition” value was inactive: 27.4%.

Regarding `COCCN1C(=O)N(C)[C@@H](c2ccccc2)C(C(C)=O)=C1C`, the activity change, negative = inhibition was inactive: -7.34% [at 12.8 µM].

Turning to `COc1ccc(CCN2CCC(Nc3nc4ccccc4n3Cc3ccc(F)cc3)CC2)cc1`, the Potency result was “inactive”.

In the case of `CN(C)c1ccc(O)c2c1C[C@H]1C[C@H]3[C@@H](N(C)C)C(=O)C(C(N)=O)=C(O)[C@]3(O)C(=O)C1=C2O`, the “activity change, negative = inhibition” value is inactive: -6.15% [at 21.6 µM].
